Test results from PubChem BioAssay AID485294 (National Center for Advancing Translational Sciences (NCATS), 2010).
About 150 (0.041%) of roughly 370,000 compounds were called active. Inconclusive results, whose numbers are uncertain, are shown with a selection of clear calls. Calls come from the whole dose curve; as a rule, active = well fitted inhibition curve with a large enough effect; inconclusive = small, poorly fitted or top-dose-only effect; inactive = flat fitted curve, though single readings scatter. No potency is given beside an inconclusive call; the fits are too rough.
Note: nearly all actives have a fitted effect of over 25% in size.
Potency is the fitted concentration of half-maximal effect; tags give direction and shape of the fitted curve.
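Throughout, for activity change, negative = inhibition: 0% = no-compound wells and -100% = no-enzyme wells.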

These compounds were tested against Beta-lactamase (Escherichia coli (strain K12)) (UniProt P00811) (assay: qHTS Inhibitors of AmpC Beta-Lactamase (assay with detergent)). Conditions: AmpC hydrolysis of nitrocefin, absorbance 480 nm, 0.01% Triton; activity change, negative = inhibition: at 114 µM (top of the series).
Sequence of UniProt P00811 (P00811 whole entry, looked up): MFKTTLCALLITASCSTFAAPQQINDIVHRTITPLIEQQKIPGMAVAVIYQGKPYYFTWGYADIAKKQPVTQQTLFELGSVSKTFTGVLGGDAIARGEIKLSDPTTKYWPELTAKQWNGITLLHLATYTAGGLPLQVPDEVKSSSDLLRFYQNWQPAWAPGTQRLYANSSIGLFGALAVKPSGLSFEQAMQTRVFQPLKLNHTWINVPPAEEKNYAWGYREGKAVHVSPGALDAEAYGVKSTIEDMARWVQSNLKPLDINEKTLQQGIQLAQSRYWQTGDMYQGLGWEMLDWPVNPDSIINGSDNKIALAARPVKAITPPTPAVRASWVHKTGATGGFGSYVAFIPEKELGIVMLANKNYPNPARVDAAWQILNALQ
Summary of the method: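 20 mM phosphate pH 7.0 + 0.01% (detergent screen) or 0.0001% Triton X-100; 5.3 nM AmpC reagent; cpd preinc 15 min RT; nitrocefin (800 uM stock) to start; A480 q20 s × 4 min; Activity was normalised to no-enzyme and no-compound control wells.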
`O=S(=O)(Nc1ccccc1)c1cccc2nsnc12` was tested, and the Potency was inconclusive [inhibitor, full curve, poor fit].
`O=C(c1cnn2c(C(F)F)cc(-c3ccccc3)nc12)N1CCN2CCCC2C1` (stereo not given) was tested, and the Potency was inconclusive [inhibitor, single point].
In the case of `COC(=O)c1c(NC(=O)CCS(=O)(=O)c2ccccc2)sc2c1CCN(C)C2`, the Potency is reported as “inactive”.
For `CN(C)CCCN1C(=O)c2oc3ccccc3c(=O)c2C1c1cccs1` (stereo not given), the Potency was “inactive”.
With `COc1cccc(/C=N/n2nnnc2N)c1` the Potency was “inactive”.
For `O=C(Cn1cnc([N+](=O)[O-])c1)c1ccc(F)cc1`, the Potency was inconclusive [inhibitor, single point].
For `Cc1ccc(NC(=O)Nn2cnnc2)c(C)c1`, the Potency was inconclusive [inhibitor, full curve].
For `CCCNC(C)C(=O)Nc1c(C)csc1C(=O)OC` (stereo not given), the Potency was inconclusive [inhibitor, full curve, poor fit].
For `COc1ccc(S(=O)(=O)n2nc(-c3cc(OC)c(OC)c(OC)c3)cc2N)cc1OC`, the Potency was “inactive”.
`O=C1CC(c2cccc(F)c2)c2c(n3ncnc3[nH]c2=O)N1` (stereo not given) was tested, and the Potency was “inactive”.
In the case of `O=S(=O)(c1ccc(NC(=S)NCc2ccc(F)cc2)cc1)N1CCOCC1`, the Potency is reported as “inactive”.
For `CCOC(=O)Cn1c(=O)n(C2CCCCC2)c2nc(-c3cccc(C)c3)nc(C(N)=O)c21`, the Potency was “inactive”.
`O=C(N/N=C/c1cccc2ccccc12)c1cccs1` was tested, and the Potency was “inactive”.
In the case of `CCn1nc(C)c(/C=N\NC(=O)c2cccc(OC)c2)c1C`, the Potency is reported as inconclusive [inhibitor, partial curve].
For `Cc1nc(NC2CCCCC2)c2nnn(Cc3ccccc3Cl)c2n1`, the Potency was inconclusive [inhibitor, full curve, poor fit].
In the case of `N/C(CCS(=O)(=O)c1ccc(Cl)cc1)=N\OC(=O)c1ccccc1C(F)(F)F`, the Potency is reported as inconclusive [inhibitor, full curve, poor fit].
With `C#CCOCCOCCOCCNc1nc(N2CCN(C(=O)CCCCCCCCCCNC(=O)Cn3cc(C[C@@H](C)O)nn3)CC2)nc(N2CCN(C(=O)CCCCCCCCCCNC(=O)[C@H](CCCN=C(N)N)n3cc(C[C@@H](C)CC)nn3)CC2)n1` the activity change, negative = inhibition was inconclusive: -15.8% [inhibitor].
In the case of `CCCCN(C(=O)Cc1ccc(S(=O)(=O)N2CCOCC2)s1)c1ccccc1`, the Potency is reported as inconclusive [inhibitor, full curve].
In the case of `COC(=O)C1CCN(C(=O)/C=C/c2ccccc2)CC1`, the Potency is reported as inconclusive [inhibitor, full curve].
For `COc1ccc(S(=O)(=O)N2CCOCC2)cc1NC(=O)CSc1nnc2ccccn12`, the Potency was inconclusive [inhibitor, full curve, poor fit].
`Cc1ccc2scc(N3CCN(C)CC3)c(=O)c2c1` was tested, and the Potency was inconclusive [inhibitor, full curve, poor fit].
With `CCn1ccnc1CNC(=O)CC1C(=O)NCCN1CCCc1ccccc1` (stereo not given) the Potency was inconclusive [inhibitor, partial curve].
With `COc1ccc(N(CC(=O)N2CCCCC2)S(=O)(=O)c2ccccc2)c(OC)c1` the Potency was “inactive”.
For `O=C1c2ccccc2C(=O)N1c1cc([N+](=O)[O-])ccn1`, the Potency was inconclusive [inhibitor, full curve, poor fit].
`O=C(NCc1ccc(Cl)cc1)C1CCN(S(=O)(=O)c2ccc3c(c2)CCCN3C(=O)C2CCC2)CC1` was tested, and the Potency was “inactive”.
In the case of `O=C(CSc1nc(O)c(C/C=C/c2ccccc2)c(=O)[nH]1)Nc1cccc(F)c1`, the Potency is reported as “inactive”.
With `O=C(CN(Cc1ccccc1)S(=O)(=O)c1ccc(S(=O)(=O)N2CCOCC2)cc1)Nc1ccccc1` the Potency was inconclusive [inhibitor, full curve, poor fit].
For `CC(=O)Nc1ccc(S(=O)(=O)N2CCN(Cc3cccnc3)CC2)cc1`, the Potency was inconclusive [inhibitor, single point].
With `COc1cc(NC(=O)c2ccccc2)c(OC)cc1NC(=O)CN1CCOCC1` the Potency was inconclusive [inhibitor, full curve, poor fit].
For `Cc1cc(C(=O)CSCCCn2c(=O)[nH]c3ccccc32)c(C)n1C`, the Potency was “inactive”.
With `Cc1csc2nc(-c3cccc(NC(=O)c4ccccc4F)c3)cn12` the Potency was “inactive”.
`N#CNC(N)=Nc1cccc(Cl)c1` was tested, and the Potency was inconclusive [inhibitor, single point].
`Cc1ccc(-n2ncc3c2ncn2c(-c4ccncc4)nnc32)cc1` was tested, and the Potency was inconclusive [inhibitor, partial curve, poor fit].
In the case of `CN(C(=O)CSc1nc2ccccc2[nH]1)C1CCS(=O)(=O)C1` (stereo not given), the Potency is reported as inconclusive [inhibitor, single point].
With `CC(=O)c1c(C)[nH]c(C(=O)NCc2ccc(F)cc2)c1C` the Potency was inconclusive [inhibitor, partial curve, poor fit].
For `CNC(=O)c1ccc(-c2ccc(F)cc2)s1`, the Potency was inconclusive [inhibitor, full curve, poor fit].
`CC(=O)Nc1ccccc1C(=O)C(=O)Nc1ccc(F)c(Cl)c1` was tested, and the Potency was “inactive”.
For `OCCC1CN(Cc2cnc(-c3ccccc3)s2)CCN1C1CCCCC1` (stereo not given), the Potency was “inactive”.
With `O=C(CN1CCCCC1)NCC(=O)Nc1ccc(F)c(F)c1F` the Potency was “inactive”.
With `COc1ccc(OCc2nnc3n2N=C(c2ccc(OC)cc2)CS3)cc1` the Potency was inconclusive [inhibitor, partial curve, poor fit].
In the case of `COc1cc(/C=C(\C#N)C(=O)c2ccc(O)c(O)c2)cc(I)c1O`, the Potency is reported as inconclusive [inhibitor, full curve, poor fit].
In the case of `CSC1=NSC2=NC(=O)/C(=C/c3coc4ccccc4c3=O)C(=N)N12`, the Potency is reported as inconclusive [inhibitor, single point].
`COc1cc(C(=O)NNC(=O)C2CCCC2)cc(OC)c1OC` was tested, and the Potency was “inactive”.
With `O=C(CSc1nnc(-c2ccncc2)o1)c1cccc([N+](=O)[O-])c1` the Potency was “inactive”.
For `O=C(NCc1ccccn1)Nc1ccccc1C(F)(F)F`, the Potency was inconclusive [inhibitor, full curve, poor fit].
